We go through 26 compounds from PubChem BioAssay AID493208 (National Center for Advancing Translational Sciences (NCATS), 2011).

Screen size: about 44,000 compounds; about 340 (0.77%) were called active. Another 5% or so got no clear call; they are omitted. Calls follow the shape of the dose curve; as a rule, active = well fitted inhibition curve with a large enough effect; inconclusive = small, poorly fitted or top-dose-only effect; inactive = flat fitted curve, though single readings scatter. The list shows a part of the results.
Potency is read from the fitted curve at half-maximal effect.

This assay in a line: Acumen qHTS Assay for Inhibitors of the mTORC1 Signaling Pathway in MEF (Tsc2-/-, p53-/-) Cells: Sytravon. Also: nearly all actives have a fitted effect of over 50% in size.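 As to activity change, negative = inhibition: plate controls were DMSO for no effect and rapamycin for full effect.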 Conditions: phospho-rpS6 immunofluorescence/PI, 24 h; series mostly up to 38.3 µM; activity change, negative = inhibition: at the top concentration. In short, it runs like this: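 Cell-based qHTS: Tsc2-/- p53-/- MEF, 24 h cpd, 37 °C; fix/perm, anti-phospho-S6 Alexa-488 + PI; Acumen 488 nm scan; pS6/PI ratio, % positive cells; rapamycin 7.5 nM = inhibition ref; PI count = viability.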
Regarding `CCOc1ccc(C2c3[nH]c4ccccc4c3CCN2C(=O)CSc2ccccc2)cc1` (stereo unspecified), the “activity change, negative = inhibition” value was inactive: -0.888%.

Regarding `CCOC(=O)c1cc(NC(=O)c2ccc(C)cc2)c(=O)n2c1oc1ccccc12`, the “activity change, negative = inhibition” value is inactive: 0.0349%.

For the compound `Cc1ccc(NC(=O)CN2C(=O)COc3ccc(S(=O)(=O)N4CCCCC4)cc32)cc1Cl`, the “activity change, negative = inhibition” value was inactive: -9.2%.

Regarding `COCCCNC(=O)Cn1c(=O)n(-c2ccccc2)c(=O)c2c1c1cc(OC)ccc1n2C`, the “activity change, negative = inhibition” value is inactive: -3.01%.

As for `COc1ccc(Nc2ncnc3scc(-c4ccc(F)cc4)c23)cc1`, the “activity change, negative = inhibition” value is inactive: 0%.

Turning to `COc1ccc(Cn2c(SCc3ccc(C(=O)NC4CCCCC4)cc3)nc3cccnc32)cc1`, the “activity change, negative = inhibition” value is inactive: -2.19%.

On to `CC(=O)Nc1ccc2nc(SCCOc3ccc(C)cc3)sc2c1`, for which the “activity change, negative = inhibition” value was inactive: 0.724%.

Consider `COc1ccc(NC(=O)c2sc3nc(C)c(C(=O)Nc4ccc(C)cc4C)c(-c4sccc4C)c3c2N)cc1`, for which the “activity change, negative = inhibition” value was inactive: -6.51%.

In the case of `CCc1c(CN2CCN(c3ccc(F)cc3)CC2)csc1C`, the “activity change, negative = inhibition” value is inactive: -6.68%.

For `Cc1ccc(CN2CCC(CNC(=O)Nc3ccccc3F)CC2)cc1`, the “activity change, negative = inhibition” value was inactive: 0.717%.

Turning to `COc1ccc(C)cc1Nc1nc2c(S(=O)(=O)c3cc(C)ccc3C)nnn2c2ccsc12`, the “activity change, negative = inhibition” value was inactive: -1.07%.

For the compound `COc1cc2c(cc1NC(=O)COc1cc(C)cc(C)c1)oc1ccccc12`, the “activity change, negative = inhibition” value is inactive: 6.59%.

Turning to `COCCNc1nc2c(S(=O)(=O)c3ccccc3)nnn2c2ccc(Cl)cc12`, the “activity change, negative = inhibition” value is inactive: 0.348%.

Take `O=C(COc1ccc(Cl)cc1)NCCc1csc(-c2ccc(C(F)(F)F)cc2)n1`: the “activity change, negative = inhibition” value is inactive: -10.9%.

Consider `Cc1oc2c(cc(NS(=O)(=O)c3ccc(Br)cc3)c3ccccc32)c1C(=O)OCc1ccccc1`, for which the “activity change, negative = inhibition” value was inactive: 5.09%.

Turning to `CN(C)c1ccc(C(=O)Nc2sc(Nc3ccccc3)nc2C(N)=O)cc1`, the Potency is active: 4.65 µM.

For `COc1ccc(Cn2c(CCC(=O)Nc3ccc(Br)c(C)c3)nc3cccnc32)cc1`, the “activity change, negative = inhibition” value was inactive: -9.59%.

Regarding `CCCCCn1c(=O)[nH]c2cc(C(=O)N3CCN(c4ccc(OC)cc4)CC3)ccc2c1=O`, the “activity change, negative = inhibition” value was inactive: 0%.

On to `O=C(Cn1nnc(-c2ccc(C(F)(F)F)cc2)n1)NCCc1ccccc1`, for which the “activity change, negative = inhibition” value is inactive: 0.306%.

In the case of `Cc1cc(C)cc(NS(=O)(=O)c2cc3[nH]c(=O)c(=O)[nH]c3cc2C)c1`, the “activity change, negative = inhibition” value was inactive: -0.238%.

For `CC(=O)Nc1ccc(S(=O)(=O)N2CCC(N3CCN(Cc4ccc(C)cc4)C(=O)C3=O)CC2)cc1`, the “activity change, negative = inhibition” value is inactive: 4.23%.

As for `CC1Cc2cc(S(=O)(=O)CCC(=O)Nc3cccc(F)c3)ccc2N1C(=O)C1CC1` (stereo unspecified), the “activity change, negative = inhibition” value is inactive: -3.12%.

For `COc1cc(OC)c(C(=O)NCc2nc(-c3ccccc3)no2)cc1OC`, the “activity change, negative = inhibition” value was inactive: 3.35%.

Regarding `O=C(Nc1cc(Cl)cc(Cl)c1)c1ccc(F)c(S(=O)(=O)N2CCCC2)c1`, the “activity change, negative = inhibition” value is inactive: -4.17%.

On to `CCCC(=O)Oc1c(Sc2ccc(C)cc2)c(C)nn1-c1ccccc1`, for which the “activity change, negative = inhibition” value was inactive: -10.7%.

On to `CCc1ccc(CN(Cc2ccco2)c2cnc(S(C)(=O)=O)nc2C(=O)Nc2ccc(C)c(Cl)c2)cc1`, for which the “activity change, negative = inhibition” value is inactive: -5.27%.
